The campaign covered roughly 110,000 compounds. About 40 (0.04%) were called active. The inconclusive results got no clear call from the source; some entries with a clear call stand among them for comparison. Calls come from the whole dose curve; as a rule, active = well fitted curve in the direction sought with a large enough effect in the signal ratio (not every such curve was filed as active); inconclusive = small, poorly fitted or top-dose-only effect, or a change in a side signal; inactive = flat fitted curve, though single readings scatter; the % refers to the signal ratio. A potency beside an inconclusive call is a rough fit, not a confirmed value.
test: IkB Signaling; conditions: ABC-DLBCL IkBa-CBG/CBR dual luciferase ratio (green luciferase fused to IkBa over red control in OCI-Ly3 lymphoma cells), 4 h; IkBa stabilization activation: at 57.1 µM (top of the series), scaled: untreated 0%, proteasome inhibitor 100% unless noted;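 for IkBa stabilization activation: 0% = basal untreated cells and 100% = reference inhibitor full response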
How it was run: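 Curves were fitted separately to fusion (green), unfused (red) and ratio luminescence, then classed by r2, magnitude and activity. Cells: OCI-Ly3, 4 h compound plus doxycycline at 37C; 10 uM MG-132 defined full response.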
Potency is the fitted concentration of half-maximal effect.

Compound | IkBa stabilization activation | Potency
CCCN(CCC)C(=O)c1c[nH]c2ccc(S(=O)(=O)Nc3cc(C)cc(C)c3)cc2c1=O | inconclusive: 6.99% [signal inhibitor] | –
Cc1ccc(SCCNS(=O)(=O)c2ccc(F)cc2)cc1 | inactive | –
COc1ccc(N2CCN(C(=O)CSc3nnnn3-c3ccc4c(c3)OCCO4)CC2)cc1 | inconclusive: 7.76% [signal inhibitor] | –
CCOc1ccccc1-n1c(CN2CCN(C(=O)c3ccco3)CC2)nc2ccccc2c1=O | inconclusive: -0.223% [signal inhibitor] | –
COc1ccc(C)cc1S(=O)(=O)Nc1cccc(-c2ccc(N3CCC(C)CC3)nn2)c1 | inconclusive: 7.04% [signal inhibitor] | –
CCOc1cccc2cc(C(=O)N3CCN(C/C=C/c4ccccc4)CC3)c(=O)oc12 | inconclusive: 19.4% [signal inhibitor] | –
CCOC(=O)c1cc(S(=O)(=O)Nc2ccc(OC(F)(F)F)cc2)[nH]n1 | inconclusive: 3.97% [signal inhibitor] | –
Cc1cc(C)c2c(=O)n(CC(=O)N3CCC(Cc4ccccc4)CC3)sc2n1 | inactive | –
Nc1c(S(=O)(=O)c2cccs2)c2nc3ccccc3nc2n1/N=C/c1cccc(O)c1 | inconclusive: -5.29% [signal inhibitor] | –
Cc1cccc2cc3c(nc12)SC(=NCC1CCCO1)N(Cc1ccco1)C3 (stereo not drawn) | – | inconclusive: 3.16 µM [rising, partial curve]
Cn1c(C(=O)NCc2ccc(F)cc2)cc2cc(S(=O)(=O)N3CCCCC3)ccc21 | inconclusive: 1.78% [signal inhibitor] | –
CN(c1ccccc1)C(CNS(=O)(=O)c1ccccc1)c1ccccc1 (stereo not drawn) | inconclusive: -0.666% [signal inhibitor] | –
CCOC(=O)c1oc2cc(O)ccc2c(=O)c1-c1ccccc1OC | – | inconclusive: 3.98 µM [signal inhibitor, full curve]
CC(C)COc1ccc(Nc2ncnc3ccc(Br)cc23)cc1 | inactive | –
CC(OC(=O)c1cc2sccc2n1C)C(=O)NCc1cccs1 (stereo not drawn) | inconclusive: 4.17% [signal inhibitor] | –
Cc1ccc(CN(Cc2ccco2)C(=O)c2cccc(C)c2)cc1 | inconclusive: 1.86% [signal inhibitor] | –
CNS(=O)(=O)c1cn(CC(=O)N2CCN(c3ccc(C)cc3C)CC2)cc1S(=O)(=O)NC | inconclusive: -2.31% [signal inhibitor] | –
Cc1ccccc1NC(=O)CSc1nc(Nc2ccccc2)nc(N2CCOCC2)n1 | inactive | –
O=C1CCCN1CCCNc1ncnc2c1cnn2-c1ccc(Cl)cc1 | inactive | –
Cc1ccc(C)c(NC(=O)CSc2nnc(C)n3c2cc2occc23)c1 | inconclusive: 7.67% [signal inhibitor] | –
CCc1nc2cc(C)nn2c2nc3ccccc3n12 | inactive | –
COc1ccccc1C[C@@H](Cc1nc2ccccc2[nH]1)c1nc2ccccc2[nH]1 | inactive: 1.32% [at 11.4 µM, scaled: untreated 0%, proteasome inhibitor 100%] | –
CCC1CCCCN1CCCNC(=O)c1ccc2c(c1)sc1nc(-c3ccc(F)cc3)cn12 (stereo not drawn) | inactive | –

Compound | IkBa stabilization activation | Potency
COc1ccc(C2c3c(-c4ccccc4O)n[nH]c3C(=O)N2CCc2ccccc2)cc1 (stereo not drawn) | inconclusive: -3.28% [signal inhibitor] | –
CCC(C(=O)OC)n1nnc2sc(-c3ccccc3)cc2c1=O (stereo not drawn) | inconclusive: 8.47% [signal inhibitor] | –
Cc1cc2nc(C)n3c4ccccc4nc3n2n1 | inactive | –
CCOC(=O)c1ccc(CN(Cc2ccc(Br)cc2)S(=O)(=O)c2cccc(C(F)(F)F)c2)cc1 | inconclusive: 3.01% [signal inhibitor] | –
COc1ccc2c(c1)c(=O)c(C(=O)c1ccc(C)cc1)cn2Cc1ccccc1F | inconclusive: 1.82% [signal inhibitor] | –
CN(C)C[C@H]1CCC[C@@H](CN(C)C)C1=O | inactive: -0.837% [at 11.4 µM, scaled: untreated 0%, proteasome inhibitor 100%] | –
COc1ccc(-c2nnc(SCC(=O)/C(C#N)=C(\C)N)o2)cc1 | inactive | –
CCn1cc(C2=NOC(C(=O)Nc3c(C)nn(Cc4ccc(F)cc4)c3C)C2)c(C)n1 (stereo not drawn) | inactive | –
CC(=O)c1c(C)oc2ccc(NS(=O)(=O)c3ccc(C(C)C)cc3)cc12 | inconclusive: 5.89% [signal inhibitor] | –
COc1cccc(-c2cc(C(=O)Nc3ccc4c(c3)OCO4)no2)c1 | inconclusive: 2.63% [signal inhibitor] | –
CC1CCc2nc(NC(=O)c3ccco3)sc2C1 (stereo not drawn) | – | inconclusive: 15.8 µM [signal inhibitor, partial curve]
COc1ccc(-c2cc3nc(C)c(CCC(=O)Nc4ccc(F)cc4F)c(C)n3n2)c(OC)c1 | – | inconclusive: 15.8 µM [signal inhibitor, partial curve]
COc1ccc(CNc2nc(-c3ccco3)nn2C(=O)CC(C)C)cc1 | inactive | –
CN(C)c1ccc(-c2cc(N(C)Cc3ccco3)ncn2)cc1 | inactive: -2.19% [at 11.4 µM, scaled: untreated 0%, proteasome inhibitor 100%] | –
CCOC(=O)c1[nH]c2ccccc2c1NC(=O)c1ccccc1OC | inconclusive: -2.56% [signal inhibitor] | –
N#C[C@@H](N=Nc1ccccc1C(=O)O)C(N)=O | inactive: -0.481% [at 11.4 µM, scaled: untreated 0%, proteasome inhibitor 100%] | –
Cc1ccc(Cl)cc1N1CCN(C(=O)c2cn(CC(C)C)c(=O)c3c2c2ccccc2n3C)CC1 | inconclusive: 6.9% [signal inhibitor] | –
CCc1ccc(N2C(=O)CS(=O)(=O)C23C(=O)N(Cc2ccccc2)c2ccccc23)cc1 (stereo not drawn) | inconclusive: -1.95% [signal inhibitor] | –
CSc1nc2ccc(NS(=O)(=O)c3ccc4c(c3)OCCO4)cc2s1 | inconclusive: 2.41% [signal inhibitor] | –
Clc1c(CSc2nc3ccccc3o2)nc2ccccn12 | inconclusive: 5.43% [signal inhibitor] | –
O=C(Nc1ccccc1C(F)(F)F)c1noc2c1CCCCC2 | inactive | –
CC(=O)c1ccc(NC(=O)C2CCCN(S(=O)(=O)c3cn(C)cn3)C2)cc1 (stereo not drawn) | inconclusive: 4.51% [signal inhibitor] | –
CCc1cccc(C)c1Nc1c(-c2ccc(N3CCOCC3)cc2)nc2ncccn12 | inconclusive: 2.06% [signal inhibitor] | –

Compound | IkBa stabilization activation | Potency
CCOC(=O)C1CCCN(C(=O)c2cc3c(=O)n(C)c4ccccc4c3s2)C1 (stereo not drawn) | inconclusive: 13.5% [signal inhibitor] | –
CCCCOC(=O)c1cc2c(cn1)[nH]c1ccccc12 | inconclusive: 2.83% [signal inhibitor] | –
CCOc1ccc(-c2c(C)nn3c(C)c(C(=O)NCC(C)c4ccccc4)cnc23)cc1OCC (stereo not drawn) | inconclusive: -0.558% [signal inhibitor] | –
C/C(=N/S(=O)(=O)c1ccc(Cl)c(Cl)c1)OCC(C)(C)C | inactive: -0.101% [at 11.4 µM, scaled: untreated 0%, proteasome inhibitor 100%] | –
CC(=O)c1ccc(NC(=O)c2ccn[nH]2)cc1 | inactive | –
Cc1ccc(CNC(=O)c2ccc3c(c2)N(Cc2cccc(Cl)c2)C(=O)CS3)cc1 | inconclusive: 1.81% [signal inhibitor] | –
Cc1nc2nc(-c3cccs3)cn2nc1C | inactive | –
CCC1(C)Cc2ccccc2/C(=C/C(=O)N2CCCCC2)N1 (stereo not drawn) | inactive | –
Cc1ccc(Cl)cc1NC(=O)Cn1c(=O)n(CCC(=O)N2CCc3ccccc3C2)c(=O)c2ccccc21 | – | inconclusive: 7.94 µM [signal inhibitor, single point]
O=C(Nc1cnc2ccccc2c1)N1CCCCC1 | inactive | –
CCOc1ccc(NC(=O)Cn2cc(C(=O)c3ccc(C)c(C)c3)c(=O)c3cc(F)ccc32)cc1 | inconclusive: 1.53% [signal inhibitor] | –
COc1cc(NC(=O)CSc2nc3nc(C)c(Cc4ccccc4)c(C)n3n2)cc(OC)c1 | inconclusive: 0.643% [signal inhibitor] | –
O=C(O)CCC(=O)NCc1ccc2[nH]c3c(c2c1)CCCC3 | – | inconclusive: 25.1 µM [signal inhibitor, partial curve]
Cc1nc(SCCO)c2oc3ccccc3c2n1 | inactive | –
CCN(c1ccc(C)cc1C)S(=O)(=O)c1nnc(NC(=O)CC(C)C)s1 | – | inconclusive: 15.8 µM [signal inhibitor, partial curve]
CCOC(=O)c1cc2c(=O)n3ccccc3nc2n(Cc2ccco2)c1=NC(=O)c1ccccc1OC | inconclusive: 6.21% [signal inhibitor] | –
CCC[C@H]1C[C@H](C(=O)N[C@H]([C@@H]2O[C@H](SC)[C@@H](O)[C@H](O)[C@@H]2O)[C@H](C)O)N(C)C1 | inactive | –
O=C(Cn1c(=O)n(-c2ccc(F)cc2)c(=O)c2sccc21)Nc1cccc(C(F)(F)F)c1 | inconclusive: 2.48% [signal inhibitor] | –
Cc1cc(C)cc(OCC(=O)Nc2cccc(-c3nc4ccccc4[nH]3)c2)c1 | inconclusive: 15.7% [signal inhibitor] | –
COc1cccc(CNC(=O)Cn2c(=O)oc3cc(S(=O)(=O)N4CCC(C)CC4)ccc32)c1 | inconclusive: 1.7% [signal inhibitor] | –
COc1ccc(Cn2c(C(=O)O)c(CNCCc3ccccc3Cl)c3ccc(C)cc32)cc1 | inconclusive: -0.177% [signal inhibitor] | –
Cc1nc(SCC#N)c2c(C)c(C)sc2n1 | inactive | –

Source: PubChem BioAssay AID445 (National Center for Advancing Translational Sciences (NCATS), 2006)
